Experiment in all cases: Primary Screen for Target Class Profiling of Small Molecule Inhibitors of Methyltransferases
Assay [1] addresses Glycine N-methyltransferase (Homo sapiens) (UniProt Q14749). Conditions: purified enzyme, MTase-Glo SAH luminescence; measured here: GNMT inhibition; at 40 µM; stronger effect = lower value. The method in brief:
(§1)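 Each enzyme was reacted with SAM and its substrate, with compounds tested once at 40 uM; SAH formed was read by MTase-Glo luminescence.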

The target in assay [2] is Guanidinoacetate N-methyltransferase (Homo sapiens) (UniProt Q14353). The note with it: purified enzyme, MTase-Glo SAH luminescence; measured here: GAMT inhibition; at 40 µM; stronger effect = lower value. The method, boiled down: as §1
For assay [3], the target named is Histamine N-methyltransferase (Homo sapiens) (UniProt P50135). Conditions: purified enzyme, MTase-Glo SAH luminescence; measured here: HNMT inhibition; at 40 µM; stronger effect = lower value. The method in brief:
as §1

Assay [4] has as its target Nicotinamide N-methyltransferase (Homo sapiens) (UniProt P40261). The note with it: purified enzyme, MTase-Glo SAH luminescence; measured here: NNMT inhibition; at 40 µM; stronger effect = lower value. The method, boiled down: as §1
The target of assay [5] is Phenylethanolamine N-methyltransferase (Homo sapiens) (UniProt P11086). Conditions: purified enzyme, MTase-Glo SAH luminescence; measured here: PNMT inhibition; at 40 µM; stronger effect = lower value. The method, boiled down: as §1

SMILES strings stand for the structures. The list shows a part of the results. The main result of the screen is listed elsewhere. These columns were measured beside it and carry no call.
% is set by controls: 0 for no effect and ±100 for the full control effect.

As to `Cc1nc2c3ccccc3n3c(CCCC(=O)NCCc4ccc(Cl)cc4)nnc3n2n1`, the activity change, negative = inhibition was -12.2% in assay [1]; 3.37% in assay [2]; -0.071% in assay [3]; 7.49% in assay [4]; -4.62% in assay [5].
The matching figures for `CCc1cn(C[C@H](NC(=O)COC)C(=O)O)c(=O)[nH]c1=O`: -2.68%, -6.87%, -2.74%, -5.89% and -0.355%.
The matching figures for `C[C@@H]1C(=O)NC2=Nc3cccc(Cl)c3CN21`: 2.44%, 13.2%, 9.26%, -3.18% and -1.12%.
Consider `COCc1c(Cl)ccc2c1CC[C@H]2c1ncc[nH]1`, for which the activity change, negative = inhibition in assay [1] was -4.37%; in assay [2], -9.06%; in assay [3], -18.2%; in assay [4], -21%; in assay [5] it was -1.89%.
Turning to `CC1(C(=O)NC2CCCCC2)Cn2c(nc3ccccc32)C(=O)N1Cc1ccc(Cl)cc1` (stereo not given), the activity change, negative = inhibition in assay [1] was -3.52%; in assay [2], 0%; in assay [3] it was 6.19%; in assay [4], 1.24%; in assay [5] it was 0.356%.
The matching figures for `COc1ccc(NC(=O)CSc2nnc3[nH]c(=O)c(C)nn23)cc1OC`: 9.06%, 0%, 7.61%, -0.583% and -20.2%.
The matching figures for `COc1ccccc1CNC(=O)C1(C)Cn2c(cc3ccccc32)C(=O)N1CCc1ccc(C)cc1` (stereo not given): -2.94%, 3.65%, -0.286%, 3.66% and -2.34%.
As for `Cc1c(CN(C)C(=O)/C=C/c2cnc3c(c2)CCC(=O)N3)oc2ccccc12`, the activity change, negative = inhibition is -2.34% in assay [1]; 1.07% in assay [2]; 12.2% in assay [3]; -18.4% in assay [4]; 3.6% in assay [5].
The matching figures for `CC(C)c1ccc(-c2cc3n(n2)CC(C)(C(=O)NC2CCCCC2)N(C2CCCC2)C3=O)cc1` (stereo not given): 3.25%, 0%, 7.15%, 7.62% and 2.69%.
As to `CCCN1C(=O)c2c(C(=O)Nc3cc(Cl)ccc3OC)ncn2CC1(C)C(=O)NC1CCCC1` (stereo not given), the activity change, negative = inhibition was -1.43% in assay [1]; 0.668% in assay [2]; 7.67% in assay [3]; 3.81% in assay [4]; 8.47% in assay [5].
Regarding `c1ccc(CN2CCn3c4c(c5ccccc53)CCCC42)cc1` (stereo not given), the activity change, negative = inhibition in assay [1] was -5.5%; in assay [2] it was -1.09%; in assay [3], -9.67%; in assay [4] it was -7.81%; in assay [5], -12.8%.
The matching figures for `CCC(C)NC(=O)c1ccc2c(=O)n(C)c3nn(CC(=O)Nc4ccc(C)cc4C)c(=O)n3c2c1` (stereo not given): 6.73%, 0%, 9.13%, 3.83% and 3.73%.
The matching figures for `COc1cccc(Cn2nc3n(CCC(C)C)c(=O)c4ccc(C(=O)NC5CCCCC5)cc4n3c2=O)c1`: 4.39%, 1.21%, 8.77%, -1.66% and 7.09%.
The matching figures for `Cc1ccc2c(C(=O)NCc3ccc(Cl)cc3)cnn2c1`: -9.76%, -4.71%, -3.28%, -8.13% and -6.58%.
`CCOc1ccc(CCN2C(=O)c3ccc(-c4ccco4)n3CC2(C)C(=O)NC2CCCC2)cc1` (stereo not given): the activity change, negative = inhibition in assay [1] is -0.19%; in assay [2] it was 3.92%; in assay [3], 4.18%; in assay [4] it was -1.83%; in assay [5], -1.71%.
For the compound `COc1ccc2nc(S(=O)(=O)Cc3ncc(C)c(OC)c3C)[nH]c2c1`, the activity change, negative = inhibition is -2.04% in assay [1]; -7.72% in assay [2]; 0.439% in assay [3]; -20.7% in assay [4]; -2.08% in assay [5].
On to `CCCSCCCN1C(=O)c2cc3oc(C)cc3n2CC1(C)C(=O)NC1CCCCCCC1` (stereo not given), for which the activity change, negative = inhibition in assay [1] was -1.27%; in assay [2], 0%; in assay [3], 8.66%; in assay [4], -1.79%; in assay [5], -4.21%.

These data come from PubChem BioAssay AID1745853 (National Center for Advancing Translational Sciences (NCATS), 2022).
